# From the supplement of paper PMC8728848
# This is one part of the list.
# B1: PX14375l-pdi-526-25-526 (Parabacteroides distasonis) (protein)
# chain: DEEPKSTLTDVAYYKTQSQMESNVNYLYRTGAIGSYVDFGSAYIGPFASIQEELTGYFSNSYEGQEIVCRYTRELTRQQNTMQLASKMDKVWDDCYRGINVANGAIKHMPEVPMDQATADRLTAEAKFFRAFNYFYLVKTFGAVPFYTDPYELAENMELPRTETSTIYNQIESDLKDAMNVLPEATFAANGHRITKYVAAMTLTDVYMYQHKYAEAAETVRIVVNSNHKLTTNDDLAMNSAFNKLRSTDDLDEAIYAYEYDNQISPSNWLPTYAFDGDASSNGLFGTYAITQKVHGPNDRYLNIYESNDLRRQPNQFYHWTYTNPKTGKVWNSVGNAACCWYYYDEDALLTTGRGTKDWNVYRYAEALLDAAESIAQSTGVTAEAAGYLAQVKARANMEGKTAAEIASSLQSMGKQAFIEECWTERLRELPLEFKMWDMCVRTGMFPNISETTPGQVTYIPLVGAKNASGATIKESDLLWPLSVNEIQRNPSLTQNEGYSAK
# Key:
# Assay in all cases: glycan array binding signal (z-score within array); higher = stronger binding
# Settings in all cases: glycan notation: IUPAC condensed, linker removed
# [1] = molecular target: Fuc(a1-2)Gal6S(b1-3)GlcNAc6S
# Method in brief: (§1)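 The Consortium for Functional Glycomics database supplied 3228 glycan arrays, of which those lacking an available protein sequence were dropped. The binding signal, a within-array Z-score, was averaged across arrays of the same protein sequence and across linkers. Negative scores can be read as non-binding.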
# [2] = molecular target: Fuc(a1-2)Gal6S(b1-4)Glc
# Method in brief: as §1
# [3] = molecular target: Fuc(a1-2)Gal6S(b1-4)Glc6S
# Method in brief: as §1
# [4] = molecular target: Fuc(a1-2)[Gal(a1-3)]Gal
# Method in brief: as §1
# [5] = molecular target: Fuc(a1-2)[Gal(a1-3)]Gal(b1-3)GalNAc
# Method in brief: as §1
# [6] = molecular target: Fuc(a1-2)[Gal(a1-3)]Gal(b1-3)GalNAc(b1-3)Gal(a1-4)Gal(b1-4)Glc
# Method in brief: as §1
# [7] = molecular target: Fuc(a1-2)[Gal(a1-3)]Gal(b1-3)GlcNAc
# Method in brief: as §1
# [8] = molecular target: Fuc(a1-2)[Gal(a1-3)]Gal(b1-3)GlcNAc(b1-2)Man(a1-3)[Fuc(a1-2)[Gal(a1-3)]Gal(b1-3)GlcNAc(b1-2)Man(a1-6)]Man(b1-4)GlcNAc(b1-4)GlcNAc
# Method in brief: as §1
# [9] = molecular target: Fuc(a1-2)[Gal(a1-3)]Gal(b1-3)GlcNAc(b1-2)Man(a1-3)[Fuc(a1-2)[Gal(a1-3)]Gal(b1-3)GlcNAc(b1-2)Man(a1-6)]Man(b1-4)GlcNAc(b1-4)[Fuc(a1-6)]GlcNAc
# Method in brief: as §1
# [10] = molecular target: Fuc(a1-2)[Gal(a1-3)]Gal(b1-3)GlcNAc(b1-3)GalNAc
# Method in brief: as §1
# [11] = molecular target: Fuc(a1-2)[Gal(a1-3)]Gal(b1-3)GlcNAc(b1-6)GalNAc
# Method in brief: as §1
# [12] = molecular target: Fuc(a1-2)[Gal(a1-3)]Gal(b1-4)Glc
# Method in brief: as §1
# [13] = molecular target: Fuc(a1-2)[Gal(a1-3)]Gal(b1-4)GlcNAc
# Method in brief: as §1
# [14] = molecular target: Fuc(a1-2)[Gal(a1-3)]Gal(b1-4)GlcNAc(b1-2)Man
# Method in brief: as §1
# [15] = molecular target: Fuc(a1-2)[Gal(a1-3)]Gal(b1-4)GlcNAc(b1-2)Man(a1-3)[Fuc(a1-2)[Gal(a1-3)]Gal(b1-4)GlcNAc(b1-2)Man(a1-6)]Man(b1-4)GlcNAc(b1-4)GlcNAc
# Method in brief: as §1
# [16] = molecular target: Fuc(a1-2)[Gal(a1-3)]Gal(b1-4)GlcNAc(b1-2)Man(a1-3)[Fuc(a1-2)[Gal(a1-3)]Gal(b1-4)GlcNAc(b1-2)Man(a1-6)]Man(b1-4)GlcNAc(b1-4)[Fuc(a1-6)]GlcNAc
# Method in brief: as §1
# [17] = molecular target: Fuc(a1-2)[Gal(a1-3)]Gal(b1-4)GlcNAc(b1-3)GalNAc
# Method in brief: as §1
# [18] = molecular target: Fuc(a1-2)[Gal(a1-3)]Gal(b1-4)GlcNAc(b1-3)[Fuc(a1-2)[Gal(a1-3)]Gal(b1-4)GlcNAc(b1-6)]GalNAc
# Method in brief: as §1
# [19] = molecular target: Fuc(a1-2)[Gal(a1-3)]Gal(b1-4)GlcNAc(b1-6)GalNAc
# Method in brief: as §1
# [20] = molecular target: Fuc(a1-2)[Gal(a1-3)]Gal(b1-4)[Fuc(a1-3)]Glc
# Method in brief: as §1
# [21] = molecular target: Fuc(a1-2)[Gal(a1-3)]Gal(b1-4)[Fuc(a1-3)]GlcNAc
# Method in brief: as §1
# [22] = molecular target: Fuc(a1-2)[Gal(a1-3)]Gal(b1-4)[Fuc(a1-3)]GlcNAc(b1-3)GalNAc
# Method in brief: as §1
# [23] = molecular target: Fuc(a1-2)[Gal(a1-4)]Gal(b1-4)GlcNAc
# Method in brief: as §1
# [24] = molecular target: Fuc(a1-2)[GalNAc(a1-3)]Gal
# Method in brief: as §1
# [25] = molecular target: Fuc(a1-2)[GalNAc(a1-3)]Gal(b1-3)GalNAc(a1-3)[Fuc(a1-2)]Gal(b1-4)GlcNAc
# Method in brief: as §1
# [26] = molecular target: Fuc(a1-2)[GalNAc(a1-3)]Gal(b1-3)GalNAc(b1-3)Gal(a1-4)Gal(b1-4)Glc
# Method in brief: as §1
# [27] = molecular target: Fuc(a1-2)[GalNAc(a1-3)]Gal(b1-3)GlcNAc
# Method in brief: as §1
# [28] = molecular target: Fuc(a1-2)[GalNAc(a1-3)]Gal(b1-3)GlcNAc(b1-2)Man(a1-3)[Fuc(a1-2)[GalNAc(a1-3)]Gal(b1-3)GlcNAc(b1-2)Man(a1-6)]Man(b1-4)GlcNAc(b1-4)GlcNAc
# Method in brief: as §1
# [29] = molecular target: Fuc(a1-2)[GalNAc(a1-3)]Gal(b1-3)GlcNAc(b1-2)Man(a1-3)[Fuc(a1-2)[GalNAc(a1-3)]Gal(b1-3)GlcNAc(b1-2)Man(a1-6)]Man(b1-4)GlcNAc(b1-4)[Fuc(a1-6)]GlcNAc
# Method in brief: as §1
# [30] = molecular target: Fuc(a1-2)[GalNAc(a1-3)]Gal(b1-3)GlcNAc(b1-3)GalNAc
# Method in brief: as §1
# [31] = molecular target: Fuc(a1-2)[GalNAc(a1-3)]Gal(b1-3)GlcNAc(b1-6)GalNAc
# Method in brief: as §1
# [32] = molecular target: Fuc(a1-2)[GalNAc(a1-3)]Gal(b1-4)Glc
# Method in brief: as §1
# [33] = molecular target: Fuc(a1-2)[GalNAc(a1-3)]Gal(b1-4)GlcNAc
# Method in brief: as §1
# [34] = molecular target: Fuc(a1-2)[GalNAc(a1-3)]Gal(b1-4)GlcNAc(b1-2)Man
# Method in brief: as §1
# [35] = molecular target: Fuc(a1-2)[GalNAc(a1-3)]Gal(b1-4)GlcNAc(b1-2)Man(a1-3)[Fuc(a1-2)[GalNAc(a1-3)]Gal(b1-4)GlcNAc(b1-2)Man(a1-6)]Man(b1-4)GlcNAc(b1-4)GlcNAc
# Method in brief: as §1
# [36] = molecular target: Fuc(a1-2)[GalNAc(a1-3)]Gal(b1-4)GlcNAc(b1-2)Man(a1-3)[Fuc(a1-2)[GalNAc(a1-3)]Gal(b1-4)GlcNAc(b1-2)Man(a1-6)]Man(b1-4)GlcNAc(b1-4)[Fuc(a1-6)]GlcNAc
# Method in brief: as §1
# [37] = molecular target: Fuc(a1-2)[GalNAc(a1-3)]Gal(b1-4)GlcNAc(b1-3)Gal(b1-4)GlcNAc
# Method in brief: as §1
# [38] = molecular target: Fuc(a1-2)[GalNAc(a1-3)]Gal(b1-4)GlcNAc(b1-3)Gal(b1-4)GlcNAc(b1-3)Gal(b1-4)GlcNAc
# Method in brief: as §1
# [39] = molecular target: Fuc(a1-2)[GalNAc(a1-3)]Gal(b1-4)GlcNAc(b1-3)GalNAc
# Method in brief: as §1
# [40] = molecular target: Fuc(a1-2)[GalNAc(a1-3)]Gal(b1-4)GlcNAc(b1-3)[Fuc(a1-2)[GalNAc(a1-3)]Gal(b1-4)GlcNAc(b1-6)]GalNAc
# Method in brief: as §1
# [41] = molecular target: Fuc(a1-2)[GalNAc(a1-3)]Gal(b1-4)GlcNAc(b1-6)GalNAc
# Method in brief: as §1
# [42] = molecular target: Fuc(a1-2)[GalNAc(a1-3)]Gal(b1-4)[Fuc(a1-3)]GlcNAc
# Method in brief: as §1
# [43] = molecular target: Fuc(a1-2)[GalNAc(a1-3)]Gal(b1-4)[Fuc(a1-3)]GlcNAc(b1-3)GalNAc
# Method in brief: as §1
# [44] = molecular target: Fuc(a1-2)[GalNAc(a1-4)]Gal(b1-4)GlcNAc
# Method in brief: as §1
# [45] = molecular target: Fuc(a1-2)[GalNAc(b1-3)]Gal
# Method in brief: as §1
binder,measurement,setting,value
B1,glycan array binding signal (z-score),[1],-0.031
same,glycan array binding signal (z-score),[2],-0.203
same,glycan array binding signal (z-score),[3],0.048
same,glycan array binding signal (z-score),[4],-0.19
same,glycan array binding signal (z-score),[5],-0.298
same,glycan array binding signal (z-score),[6],-0.21
same,glycan array binding signal (z-score),[7],-0.261
same,glycan array binding signal (z-score),[8],1.25
same,glycan array binding signal (z-score),[9],0.373
same,glycan array binding signal (z-score),[10],-0.223
same,glycan array binding signal (z-score),[11],-0.218
same,glycan array binding signal (z-score),[12],-0.368
same,glycan array binding signal (z-score),[13],0.049
same,glycan array binding signal (z-score),[14],0.352
same,glycan array binding signal (z-score),[15],0.036
same,glycan array binding signal (z-score),[16],-0.119
same,glycan array binding signal (z-score),[17],-0.08
same,glycan array binding signal (z-score),[18],-0.073
same,glycan array binding signal (z-score),[19],-0.095
same,glycan array binding signal (z-score),[20],-0.245
same,glycan array binding signal (z-score),[21],-0.204
same,glycan array binding signal (z-score),[22],-0.207
same,glycan array binding signal (z-score),[23],-0.171
same,glycan array binding signal (z-score),[24],-0.057
same,glycan array binding signal (z-score),[25],-0.255
same,glycan array binding signal (z-score),[26],-0.249
same,glycan array binding signal (z-score),[27],-0.036
same,glycan array binding signal (z-score),[28],2.42
same,glycan array binding signal (z-score),[29],-0.188
same,glycan array binding signal (z-score),[30],0.053
same,glycan array binding signal (z-score),[31],-0.289
same,glycan array binding signal (z-score),[32],-0.176
same,glycan array binding signal (z-score),[33],-0.32
same,glycan array binding signal (z-score),[34],-0.233
same,glycan array binding signal (z-score),[35],-0.372
same,glycan array binding signal (z-score),[36],-0.278
same,glycan array binding signal (z-score),[37],-0.186
same,glycan array binding signal (z-score),[38],-0.032
same,glycan array binding signal (z-score),[39],-0.169
same,glycan array binding signal (z-score),[40],-0.281
same,glycan array binding signal (z-score),[41],-0.22
same,glycan array binding signal (z-score),[42],0.033
same,glycan array binding signal (z-score),[43],0.492
same,glycan array binding signal (z-score),[44],-0.031
same,glycan array binding signal (z-score),[45],-0.041
